Measured values reported in the supplement of paper PMC3334620.
Over roughly 33,000 sequences, “E-score (-0.5 to 0.5)” has its median near -0.013; the highest 2% begin near 0.3. The list shows a part of the results.

Biological target: T1, Msn1 (UniProt P22148)
T1 sequence: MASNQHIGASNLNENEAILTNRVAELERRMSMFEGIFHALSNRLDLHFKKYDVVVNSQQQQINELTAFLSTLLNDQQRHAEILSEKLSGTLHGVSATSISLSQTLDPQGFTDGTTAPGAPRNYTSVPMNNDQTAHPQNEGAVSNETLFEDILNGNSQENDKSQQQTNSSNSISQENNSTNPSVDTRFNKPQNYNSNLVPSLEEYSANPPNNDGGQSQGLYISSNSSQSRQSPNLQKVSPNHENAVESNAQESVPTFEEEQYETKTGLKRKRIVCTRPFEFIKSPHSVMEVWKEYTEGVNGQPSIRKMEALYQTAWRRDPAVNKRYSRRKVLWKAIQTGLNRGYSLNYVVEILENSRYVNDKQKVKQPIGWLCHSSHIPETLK
Assay: PBM E-score (8-mer binding enrichment) (E-score (-0.5 to 0.5)); higher = stronger / more preferred TF binding; most listed sequences are background and not binding sites
Settings: protein concentration: 200 nM; construct: GST-full length
Procedure: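 Universal 'all 10-mer' protein binding microarrays (Agilent AMADID 015681) probed with GST-tagged S. cerevisiae TFs (full-length or DBD) made by in vitro transcription/translation (PURExpress), about 100-200 nM. Bound TF was detected with fluorescent anti-GST. Each ungapped 8-mer (which stands for itself and its reverse complement) is scored by the PBM enrichment score (E-score), a modified Wilcoxon-Mann-Whitney statistic from -0.5 to +0.5, computed with the Universal PBM Analysis Suite. Scale: above 0.35 generally sequence-specific binding.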

Row | Sequence | PBM E-score
1 | GCCAACCC | -0.134
2 | GAGGTTAA | -0.0768
3 | GGTTTAGA | 0.0228
4 | AAGATCCG | -0.0183
5 | ACTGTGCC | -0.0718
6 | CTAACGAC | -0.0504
7 | GGACAACC | 0.303
8 | CGAGGCCC | -0.158
9 | CCCTGAGA | -0.245
10 | CCAACGTA | 0.036
11 | ATCCATGC | -0.133
12 | TGAAACAA | 0.119
13 | TACGCAGA | 0.137
14 | AACCTCCG | -0.0619
15 | TAGTATAA | 0.0795
16 | GCGTCCCA | 0.0223
17 | AAAGCCCT | -0.255
18 | CGTAAGAC | 0.0666
19 | ATCTGGGG | -0.131
20 | GTGTACCA | 0.189
21 | CCAGGACC | -0.105
22 | CTCGCGTA | -0.107
23 | GATGTGGC | -0.135
24 | GAGCGGAC | -0.0401
25 | TATATCGA | 0.119

Row | Sequence | PBM E-score
26 | ATTCACTA | 0.154
27 | CAACGTGG | 0.0759
28 | CCAACCCC | -0.16
29 | ACCATTAC | -0.0301
30 | TGCACCCA | -0.165
31 | GACTTCTC | 0.124
32 | CATTGTCA | 0.158
33 | CGAAAGCA | 0.00321
34 | AGGTAGAC | -0.101
35 | ATAGGGTC | -0.215
36 | ATGAGTTA | -0.181
37 | AGCTGCAT | -0.208
38 | CACCTACG | -0.101
39 | ATACTAGA | 0.125
40 | CGCGGGTA | -0.0954
41 | AACGACTG | -0.199
42 | TTCCAAAA | 0.192
43 | AAATTTCC | 0.0146
44 | AGTAGGAT | -0.0677
45 | CAGCAAGG | -0.195
46 | GAGGAAGA | -0.0553
47 | ACAAATGT | 0.446
48 | GTTCCATA | -0.0709
49 | CAGTGGCA | -0.201
50 | CAGAATTA | -0.175

Row | Sequence | PBM E-score
51 | AGGGATGA | -0.0174
52 | GCGATACA | 0.00094
53 | ATGGCCCC | -0.345
54 | CGAAGTAA | 0.00816
55 | ACATCTGA | 0.0825
56 | ATATCAAT | 0.19
57 | CCGCGCTA | 0.0389
58 | CTAGATAA | 0.0565
59 | ATCCTCTG | -0.0596
60 | AATTGCAT | -0.00309
61 | ATACGGCA | 0.0902
62 | ACGTGTAT | -0.0533
63 | AACACTAG | -0.0154
64 | GCGACTTA | 0.0387
65 | ACACGCTA | -0.0722
66 | CGATAAAG | 0.119
67 | CTCCGTAC | 0.0569
68 | AGTCATGA | 0.0582
69 | ACGCCGGG | -0.126
70 | AGATCATG | -0.0829
71 | ACCCAGCT | -0.326
72 | AGGTCACC | -0.0357
73 | GACGTAGA | -0.0822
74 | CAATGTAG | -0.109
75 | AGCCAGAG | 0.0446

Row | Sequence | PBM E-score
76 | AATAATAC | 0.207
77 | CCTGTCTC | -0.0622
78 | AAGTGCAC | 0.0628
79 | GTGTACAC | 0.162
80 | TACAGGCA | -0.0524
81 | CGTGTTAC | -0.216
82 | AGGGCATA | -0.16
83 | GTGAGTAA | -0.112
84 | ACCGGGGG | -0.398
85 | GTCCTAAA | 0.365
86 | ACGTCGCC | -0.0749
87 | ATTAAATC | 0.187
88 | ATTGATTA | 0.133
89 | GTATAATA | 0.186
90 | AGTAGGGC | -0.042
91 | CCACCAGG | -0.372
92 | ACCCTTTG | -0.292
93 | CGTTTTAC | -0.0418
94 | CTATAAAC | 0.0886
95 | CTACGCCC | -0.291
96 | AACGGGAT | -0.0965
97 | TAGTTCGA | 0.043
98 | TCCAACGA | 0.082
99 | ACCGAAAC | 0.0554
100 | CTAGATTA | 0.143

Row | Sequence | PBM E-score
101 | CAGTACGA | 0.0277
102 | CTTAGGGC | -0.0053
103 | GCGCGAAC | 0.0676
104 | CAAAGTCG | 0.137
105 | AGTGGTAG | -0.15
106 | ATTGTGCC | -0.158
107 | ATGGTAGG | -0.142
108 | GTATGGGA | -0.0805
109 | GGATCTCA | 0.00437
110 | AATGCGGC | -0.0477
111 | CGTGATAC | -0.199
112 | CCTCCCTC | -0.0838
113 | GCAACTCC | -0.225
114 | GAACCCAA | -0.0337
115 | ATCAGATG | 0.00659
116 | ATTTGACG | 0.15
117 | GAAATTGC | -0.0414
118 | GGTTACAC | -0.0806
119 | AAACCACG | 0.0703
120 | CCCGAGAC | 0.135
121 | CATATCGC | 0.184
122 | GGGGGAAC | -0.456
123 | ACCTGCAC | -0.15
124 | GTAGGTCA | -0.128
125 | CGGTGGTA | -0.0616

Row | Sequence | PBM E-score
126 | GCCAATCA | -0.169
127 | GAGGCAGC | -0.23
128 | GAGTTGGA | 0.0198
129 | GACATCCA | 0.219
130 | ACAGAGAC | 0.203
131 | CGCTAAGC | 0.175
132 | AGGACTGA | 0.0132
133 | AGTCATTA | -0.0095
134 | ACACTCGC | 0.166
135 | GCAGGCAA | -0.042
136 | CTATCTAA | 0.00202
137 | CGATGCAC | -0.295
138 | CAACCGCG | 0.227
139 | AACAAGAT | 0.181
140 | AGTCCAGG | -0.162
141 | AGGGTTAC | -0.162
142 | CGGCCCCG | -0.287
143 | AAATCAAT | 0.0903
144 | AGAACGGG | -0.116
145 | CTGAAAAA | 0.0323
146 | CCTTATTC | -0.086
147 | ACACCGCC | -0.0808
148 | ACAACGTA | 0.0255
149 | CACTCTAG | -0.175
150 | CCCGGAGG | -0.202

Row | Sequence | PBM E-score
151 | GATCACAC | -0.161
152 | AGGGTTTC | -0.168
153 | GCTGTCAC | -0.0879
154 | CGGTTCCA | -0.0949
155 | ACTTAGGC | -0.0738
156 | ACCCCGTC | -0.286
157 | CTGCCAAC | -0.106
158 | GCTCTGAC | -0.045
159 | ACCACATG | -0.0942
160 | CCGGAACA | 0.236
161 | GGCCCAAC | -0.143
162 | TAAATGAA | 0.253
163 | AAAGTCAA | 0.176
164 | ACGGCCAG | -0.0582
165 | AGTTAAAC | -0.0331
166 | AACCATGC | -0.00545
167 | CGCCTCCA | -0.233
168 | ATCACTGC | 0.0298
169 | GTCTGTAA | 0.127
170 | TCACTGGA | -0.0157
171 | GAACGATC | -0.00246
172 | CTACCCGC | -0.167
173 | CCTCCCGA | -0.207
174 | CATTCTGA | 0.0627
175 | GGATGGAC | 0.178

Row | Sequence | PBM E-score
176 | ACAGTTCA | 0.114
177 | CACCCTAA | -0.141
178 | GCGCTCAA | -0.1
179 | ACCTACAA | 0.0435
180 | GAAATTCC | -0.012
181 | ATGGTAAG | -0.14
182 | CTCGACTC | -0.132
183 | CCCATTGC | -0.178
184 | GCGGACGC | -0.0105
185 | TATCAGGA | 0.139
186 | ACAGGTAC | 0.0432
187 | CAAACATC | 0.169
188 | AAATAGTT | 0.115
189 | AACGCGCC | -0.0708
190 | AGACGATA | 0.131
191 | AATGCGGA | 0.114
192 | GGGCTGTA | -0.173
193 | TACCGGTA | -0.197
194 | ATGTGACC | 0.0331
195 | ATGAGAGA | 0.00401
196 | AACCAAGT | 0.0857
197 | CTGAGTCA | 0.0364
198 | AAGCAGGA | 0.0601
199 | CCATATGG | -0.0842
200 | TCTGCCAA | -0.00391

Row | Sequence | PBM E-score
201 | GGCCTTAA | 0.0617
202 | CGACTGGA | -0.136
203 | GGTCCCAA | -0.183
204 | CATACCGA | 0.0453
205 | CCCCCAGC | -0.337
206 | AACCGAAA | 0.139
207 | AAGACTTA | 0.0625
208 | AGTCTGCC | -0.0704
209 | AGACCTGC | -0.0719
210 | AATCATCT | -0.161
211 | CCTGGTCA | -0.0283
212 | AGATCGTG | 0.00482
213 | AAGGCCCA | -0.246
214 | CACGCATG | 0.0332
215 | TTCTGCAA | -0.0673
216 | ATATGCTC | 0.0594
217 | ATACGCAT | 0.0734
218 | ACCTATCA | -0.00035
219 | CTATACGA | 0.0459
